Laboratory results taken from article PMC12136788.
This is one part of the list.

B1: 148797332_148798597_1152_CDS_ENSMUSG00000002957_ENSMUST00000003038|mouse|control|control (ssRNA)
RNA: GGGAGUUCUACAGUCCGACGAUCUAGGUUCGUCUCCCGGUGCUGCAGGAACUGGCCCAGCUGGUUGCAGGCGCGGACGAGCAAGUUUGGCUCACUGUCAUGGUGGAUGAUCAGGCUGAUGGCCUCAAACAGCACAGCGUUCUUCAACAGAGGAUUGAGCAUCA
B2: chr12:79978091:79978092:+_ENSMUSG00000021116_ENSMUST00000071230|mus_hu|motif|central (ssRNA)
RNA: GGGAGUUCUACAGUCCGACGAUCGCUUUCCAGCUGCUCAUCCUUGGUGUAUUCUAACACCUCAGCAACAUGACGAAGAAUGCGGUAAACAGUUUUGGAUUUUGUGAAUUUGUCUUCACAUUUGAUUGCUUCCUCUGGAGAAACCAACAGAGGAUUGAGCAUCA
B3: chr3:180328061:180328062:+_ENSG00000163728_ENST00000412756|hu_mus|FALSE|FALSE (ssRNA)
RNA: GGGAGUUCUACAGUCCGACGAUCGCUCAUGUUUACUGACAUCCCGCGAUCCAGAGUAUGUAUAUUUUUUUUGUUUUUCAAGUGAUUUCCAAGAGUAGUCUGAACUUGCUGGUGAAGUAGAGUACUUCACAGAACUUGGCUCCCCAACAGAGGAUUGAGCAUCA
B4: chr1:150204246:150204247:-_ENSG00000143401_ENST00000314136|hu_hu|motif|central (ssRNA)
RNA: GGGAGUUCUACAGUCCGACGAUCGAAAGUAUCAUUCAGGCCUUCAAUUUCCCCAUUGACACACAGGCAAUUAUCAAGGACGGACUCUGUCACCUCCUCCGGGGAUCUGUUCCUUAACUCCAGGUUAAUCUUCUUCUUCAUCUCCAACAGAGGAUUGAGCAUCA
B5: chr1:225611761:225611762:-_ENSG00000143815_ENST00000272163|hu_mus|FALSE|FALSE (ssRNA)
RNA: GGGAGUUCUACAGUCCGACGAUCCCAGGCCAUCGGCCUCUGACCACUUCACCCUCAACAAACUUCCUACUUGGCAUUUUCUAAAAUUAGUCUGGCCGCGCUCCGGCGGGAACUCCAGCCACUCCAGGACAGUCACCAGCAGCCCAACAGAGGAUUGAGCAUCA
B6: chr10:61154807:61154808:+_ENSMUSG00000020088_ENSMUST00000020285|mus_hu|FALSE|FALSE (ssRNA)
RNA: GGGAGUUCUACAGUCCGACGAUCCAACUCUUUUAUGAGGUCAAAGUCACUUUUGAUAACUGAAAACGAAAAAGGAAGGUGCUAUAGAGAGAAAUUAAAUUUCACAAAAGUAUAAAAGCAAAGACUGGCUAAAAUCUGUAACUUCAACAGAGGAUUGAGCAUCA
B7: chr6:17872010:17872011:+_ENSMUSG00000029534_ENSMUST00000127322|mus_hu|FALSE|FALSE (ssRNA)
RNA: GGGAGUUCUACAGUCCGACGAUCUUCACUGUCUCCUCUCUUCAGGAUAUGUUCUGGGGGUAGGAUUAAGCUUUUCAUUUCUAGUAGGUAUUUUGGCACAUGAGGAUUGAAUUCCACAGCUCUAUGAAUGGCCUCUACUGCAUUCAACAGAGGAUUGAGCAUCA
B8: 6413478_6413598_216_CDS_ENSG00000147854_ENST00000276893|human|control|control (ssRNA)
RNA: GGGAGUUCUACAGUCCGACGAUCGAACAGCGCCCACACCCGCUCGCGCAGCUCCUCAAUCGUGGCUUUGCGAGACACGUCCUCAAUGGUGCACGUCUUGGAGCCAUCAAUGGUGCGAACCUGUAUCCACAUCUUGGCGCCUAGCAACAGAGGAUUGAGCAUCA
B9: chr5:144087797:144087798:-_ENSMUSG00000001844_ENSMUST00000161915|mus_hu|FALSE|FALSE (ssRNA)
RNA: GGGAGUUCUACAGUCCGACGAUCUCUCUGAAGACAUUCUGGAAUUAUACAGGAAAAUAUCUGUGCUCCUCCCCUGGCCAGGCCUUUCAAGCUAUGGGUUUUCGAGCAGACGCAGAUAAGAACAAGACCCAUCAGCACCGAAGCCAACAGAGGAUUGAGCAUCA
B10: chr12:42180722:42180723:-_ENSMUSG00000036295_ENSMUST00000043884|mus_hu|mus_mus_mus_hu_True|38_58 (ssRNA)
RNA: GGGAGUUCUACAGUCCGACGAUCCUGUAGGAGAAGAAUCUGUGUGUUAGCUGGCAAUCUGGCUGGGAAAGUUAAAAGCCCUAAAUCAUUACAAUCCACUGUCGAUGCUUCCAUAUAAAUGGAUCUGGGUGUAAACCAAGGCCUCAACAGAGGAUUGAGCAUCA
B11: chr5:138700276:138700277:+_ENSG00000120727_ENST00000265192|hu_hu|FALSE|FALSE (ssRNA)
RNA: GGGAGUUCUACAGUCCGACGAUCUUCCAGCAUUUCUUGGAAACAGCGUUCAAUAAAUUCUUCUUCCCAUAACUCCUCUUCUAUUUGUCUGUUGAAUUCUUCUUCAUUUUCCAUCCACAUGUACUCUGCAAAUGGAUUGUCAUCCAACAGAGGAUUGAGCAUCA
B12: 32079262_32079382_106_5pUTR_ENSMUSG00000022781_ENSMUST00000023467|mouse|control|control (ssRNA)
RNA: GGGAGUUCUACAGUCCGACGAUCAGGGCGGAGGGGAGCGGCGCGGGGCGCGGCCGUCGCUACCGAGGCCGUGAGGCGCAGAACCCCUUGGGCCAGGGAGGGGAGGGCAGGAGCCUUCGGCAAUGGCGACGGCCCGGGCCGGAGCAACAGAGGAUUGAGCAUCA
B13: 91041409_91063878_293_CDS_ENSG00000106723_ENST00000375859|human|control|control (ssRNA)
RNA: GGGAGUUCUACAGUCCGACGAUCGUUGGCAGAUACUCCAGCAUGGCCUGCAUCAGCUCUGGACCGCUGGCCAGGUGUCUUUCCGAAUGGGGUCUUCAUUCAUCUGUAUUUAAGUGAGCAGCGGAGCUGCUGGACUAGGGUGAACAACAGAGGAUUGAGCAUCA
B14: chr7:141438946:141438947:+_ENSG00000106028_ENST00000265304|hu_mus|hu_hu_hu_mus_True|28_58 (ssRNA)
RNA: GGGAGUUCUACAGUCCGACGAUCGACGAAAUACCUGUAACACAGGUCUUCGAAACAUGGCUUCUGUUUUUCUUACAGUCUAAUCUUUAGGCUUUUCCUAAAGGAAAAACCCGAGCAAGAAAAAUGAUAAAUCAAGAAACUACACAACAGAGGAUUGAGCAUCA
B15: chr4:41607924:41607925:+_ENSG00000064042_ENST00000508501|hu_hu|motif|central (ssRNA)
RNA: GGGAGUUCUACAGUCCGACGAUCCGUUCCGCUGUAGGAUGUGCAGCUGUUUGCUGCUUUUCCCAGCCAGUAAAUGGUAACGGAUACAUUUUUCAGCUUCCUACUAUAAUCAAGGCUCUUGACUGUUACUCUGUUGGAUGUAUCCAACAGAGGAUUGAGCAUCA
B16: chr2:104521139:104521140:-_ENSMUSG00000027175_ENSMUST00000111118|mus_mus|FALSE|FALSE (ssRNA)
RNA: GGGAGUUCUACAGUCCGACGAUCGAUGCGGGAGAUCAACCCCGGGGCCUCGUGCAGGCUAGGCGAUCACUGGCCACUGUACUACAUACAAGUUGACAAAACAAGCUUUUAAAAAUCAAGUUCUAUCCAUUGGGUAUGGUGGCACAACAGAGGAUUGAGCAUCA
B17: chr7:107875085:107875086:-_ENSG00000091129_ENST00000351718|hu_mus|FALSE|FALSE (ssRNA)
RNA: GGGAGUUCUACAGUCCGACGAUCUGGGGGAGGUUUCCCUUUGGCCUCACACUGGAUUACAAUAUUCUCCCGAGGGUCAAUGAUGUAGUCUUUUGGUGACUGUUGAGUGAUGGUUGGAGGUUGUACCAGAUCGAGAGGAACAUCCAACAGAGGAUUGAGCAUCA
B18: 81600016_81601175_2457_CDS_ENSG00000153956_ENST00000356860|human|control|control (ssRNA)
RNA: GGGAGUUCUACAGUCCGACGAUCACCAUCAGUCACAACAAAUCGUGCUUUCACUCCCUUGAUAUUUUUCUGCUUACUCCAGUAAUUUUGGACAAGUUCAUUUGUAAAGCCUGCAUCAAGCAAGACUCUAUUAAUCAAAUCCGCCAACAGAGGAUUGAGCAUCA
B19: chr16:69481128:69481129:+_ENSG00000103018_ENST00000515314|hu_mus|FALSE|FALSE (ssRNA)
RNA: GGGAGUUCUACAGUCCGACGAUCACUCGGAUGGACAUCUCCAAUGUAGUACUGCUUUAGCAUCUCCCUGGCAUCAGGGGAGUGGCCGACAUCUUCAAAGCUUUCAGUUGCAUCAGCACCCGCUUGUUCCAGCAGAACCUCUUCCAACAGAGGAUUGAGCAUCA
B20: chr4:45007048:45007049:-_ENSMUSG00000049657_ENSMUST00000055028|mus_mus|FALSE|FALSE (ssRNA)
RNA: GGGAGUUCUACAGUCCGACGAUCGCUCUGACUUGCACUGAAAUUACUCCCCCUGCUCUUGUUGAGAAAAUUGGAAAUACUAAAAGAGGUCUUAUGUUCUAGAUUAUUCGUGACUUCCAAGAUGUGGAUGUCCCCGACCCUGUCCAACAGAGGAUUGAGCAUCA
B21: chr11:134117569:134117570:+_ENSG00000151502_ENST00000281187|hu_mus|FALSE|FALSE (ssRNA)
RNA: GGGAGUUCUACAGUCCGACGAUCAGAAACAUGUAAACACUGCAGCUUCUUAAUUACAAGUUGCACUGCUUGGUUUAGUACCUAUGCACUCCAGGUUUGGGAACCUUAAAGGAUGGGGAUGGGAACCUUCCCAUACUUUCACAGCAACAGAGGAUUGAGCAUCA
B22: 94768049_94770785_385_CDS_ENSG00000164953_ENST00000453321|human|control|control (ssRNA)
RNA: GGGAGUUCUACAGUCCGACGAUCACAGUGACAUUUUCCUUCGGCAGUUAAGUCACUAGGGCAAGAAAUGCAGUUCCAGCCAUCUUCUGUAACACCUUUCAUGUUUUCUGGGCACUUUUUACAAAUAAUAGCAGGUCCUCCAUUCAACAGAGGAUUGAGCAUCA

Biological target: T1, UNK ZnF1-3 (human, UniProt Q9C0B0 31-174)
T1 sequence: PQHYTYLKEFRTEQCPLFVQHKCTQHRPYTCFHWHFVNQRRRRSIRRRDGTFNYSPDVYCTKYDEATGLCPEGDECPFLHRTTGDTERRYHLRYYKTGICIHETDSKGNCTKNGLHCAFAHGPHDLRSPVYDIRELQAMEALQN
Experiment: nsRBNS (natural sequence RNA bind-n-seq); RBNS binding buffer (assumed for nsRBNS): 25 mM Tris pH 7.5, 150 mM KCl, 3 mM MgCl2, 0.01% Triton X-100, 500 ug/ml BSA, 20 U/ml SUPERase-In, 4 C; UNK is unkempt and MSI1 is Musashi-1; names of the RNAs are library labels; protein concentration not given here; high values mean tight binding

Q: Which binding signal does the source give for B1 here?
A: Its binding signal is 1.15 enrichment R.

Q: With B2 as the binder, how does the binding signal read?
A: The binding signal was 0.612 enrichment R.

Q: For B3, which binding signal is on record?
A: Its binding signal is 0.692 enrichment R.

Q: With B4 as the binder, how does the binding signal read?
A: Its binding signal is 0.791 enrichment R.

Q: Which binding signal does the source give for B5 here?
A: The binding signal was 1.29 enrichment R.

Q: B6 was tested. Which binding signal did it give?
A: The binding signal was 1.8 enrichment R.

Q: How did the binding signal turn out when B7 was run?
A: Its binding signal is 1.17 enrichment R.

Q: Which binding signal does the source give for B8 here?
A: Its binding signal is 0.621 enrichment R.

Q: Which binding signal does the source give for B9 here?
A: Its binding signal is 1.05 enrichment R.

Q: How did the binding signal turn out when B10 was run?
A: Its binding signal is 1.35 enrichment R.

Q: For B11, which binding signal is on record?
A: Its binding signal is 0.607 enrichment R.

Q: B12 was tested. Which binding signal did it give?
A: The binding signal was 0.57 enrichment R.

Q: How did the binding signal turn out when B13 was run?
A: The binding signal was 0.701 enrichment R.

Q: B14 was tested. Which binding signal did it give?
A: The binding signal was 0.394 enrichment R.

Q: B15 was tested. Which binding signal did it give?
A: Its binding signal is 0.427 enrichment R.

Q: How did the binding signal turn out when B16 was run?
A: The binding signal was 0.809 enrichment R.

Q: With B17 as the binder, how does the binding signal read?
A: Its binding signal is 0.805 enrichment R.

Q: With B18 as the binder, how does the binding signal read?
A: The binding signal was 1.17 enrichment R.

Q: How did the binding signal turn out when B19 was run?
A: Its binding signal is 1.23 enrichment R.

Q: For B20, which binding signal is on record?
A: Its binding signal is 1 enrichment R.

Q: With B21 as the binder, how does the binding signal read?
A: The binding signal was 0.679 enrichment R.

Q: For B22, which binding signal is on record?
A: The binding signal was 0.868 enrichment R.
